Data: the supplement of paper PMC3334620
The full ranking holds about 33,000 sequences; the median of “E-score (-0.5 to 0.5)” is about -0.036, and the highest 2% start at about 0.37. The list shows a part of the results.

molecular target: T1, Yer064c (UniProt P40041); test: PBM E-score (8-mer binding enrichment) (E-score (-0.5 to 0.5)); higher = stronger / more preferred TF binding; most listed sequences are background and not binding sites; conditions: protein concentration: 200 nM; construct: GST-full length
T1 sequence: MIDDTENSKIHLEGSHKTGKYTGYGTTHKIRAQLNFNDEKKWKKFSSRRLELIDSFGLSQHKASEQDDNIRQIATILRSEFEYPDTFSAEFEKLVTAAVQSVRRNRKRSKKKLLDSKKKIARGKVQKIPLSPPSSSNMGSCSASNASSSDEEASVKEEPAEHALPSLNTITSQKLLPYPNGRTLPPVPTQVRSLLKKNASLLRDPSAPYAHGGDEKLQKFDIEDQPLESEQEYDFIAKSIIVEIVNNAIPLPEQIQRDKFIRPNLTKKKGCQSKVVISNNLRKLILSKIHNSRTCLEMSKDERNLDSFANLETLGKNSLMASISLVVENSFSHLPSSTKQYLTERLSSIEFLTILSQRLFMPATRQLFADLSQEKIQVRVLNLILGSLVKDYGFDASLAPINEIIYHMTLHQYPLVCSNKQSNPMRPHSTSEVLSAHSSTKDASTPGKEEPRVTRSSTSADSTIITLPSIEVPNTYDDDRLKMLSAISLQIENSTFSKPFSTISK
Outline: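 The E-score, a modified Wilcoxon-Mann-Whitney statistic, was computed by the Universal PBM Analysis Suite for every ungapped eight-base word pooled with its reverse complement. Scans behind it were normalised with masliner after bound GST-tagged yeast transcription factors were detected with fluorescent anti-GST. The proteins, at about 100-200 nM, had been applied to universal all-10-mer Agilent arrays made double-stranded by primer extension.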

Sequence | PBM E-score
CCCGCTCG | -0.301
CCACGGGC | -0.0954
ATACCAGG | -0.0197
AGATTAAC | 0.255
ATAGTACG | -0.0109
CAATGATC | 0.122
ATTGGACA | -0.0986
CATCGATG | 0.0682
AAGCCAAG | -0.0616
GGGCTACC | -0.191
CTGCGACA | -0.0895
CACACGGA | -0.0651
CACTAATA | 0.134
AGACACCT | -0.0938
AGCATGCA | -0.0829
AGCTCTAA | -0.0169
CTCAAGAG | 0.0167
ATATTGTA | 0.0555
CCTTACCG | -0.202
ATGTAGAC | 0.144
TAGGATGA | 0.254
GTATTGTA | -0.0603

Sequence | PBM E-score
ATAGTTAG | 0.155
CGGTGGAC | -0.0773
CCTCCTCC | -0.0433
GATGTGAC | 0.256
CACTCGAG | 0.0565
GATCGATC | -0.0475
GACATGGA | 0.0166
CCTGGAGA | 0.0904
CAACTACA | -0.0401
CCCTGGGA | -0.337
ATGTACCA | -0.194
GCCAGCCA | -0.133
AGCAGCCA | -0.0376
TAATGTAA | 0.124
AGAAACCC | -0.0774
CCCTGAAG | -0.234
GACTTGAA | 0.145
CTCTCCTC | -0.234
ACCCGCGG | 0.0279
CGTTCTAC | -0.11
AGAAAGCC | -0.115
AAAGGGAT | -0.181

Sequence | PBM E-score
GCTTACAA | 0.0653
AGCCTCGA | -0.0164
AGTCACCG | 0.476
TACCCGCA | 0.138
CAATGGAG | -0.128
CAAGAAAA | 0.0516
CTCGGGCA | 0.0456
CGAGCCGA | 0.0659
CTTAGTGA | 0.248
AGACCATA | 0.0818
GGTACCCA | 0.1
AAGGGCCG | -0.32
AACATGCC | -0.132
ATTACCAA | 0.114
CCGCTACA | -0.187
GCAAGTCC | -0.0536
CCGTCGCC | -0.321
GGTGAATA | -0.115
AAACAGAC | -0.0305
ACGGACTA | 0.205
ATCTGATC | 0.0976
CGCTTAAG | -0.0342

Sequence | PBM E-score
TAACCGAA | -0.0477
AACGTTCA | -0.336
GGTAGGAA | 0.065
ATCAAAAT | 0.152
CATGCGTA | -0.0672
AGGGCATC | -0.26
AATACTAA | 0.131
TGCACGCA | -0.164
CCAAGAAA | 0.113
CATCCAGG | -0.0695
GGAACCAC | -0.0181
AGCGTATA | 0.0783
AAGCCGGC | -0.171
CACTATAA | -0.0109
ATATACTC | 0.103
AGCAATTG | -0.132
ACGCAGCT | -0.113
CCAAGGTC | -0.1
GCGGTCTA | -0.0572
CGTGGTAG | -0.0852
